# Assay results taken from patent US20260166169A1, “ANTIBODY-DRUG CONJUGATE, PREPARATION METHOD AND USE THEREOF” (priority 2023, published 2026).
# B1: 02-1-LP1 (conjugate)
# heavy: QVQLVQSGAEVKKPGASVKVSCKASGYTFTDYNMDWVRQSPGQSLEWMGDINPNNGATLYNQNFRGRVTITRDTSASTAYMELSSLRSEDTAVYYCTRSGYDDYYALDYWGQGTTVTVSS[human IgG1 constant region left out]
# light: DTQLTQSPSFLSASVGDRVTITCSASSSVGYMHWYQQKPGKAPKLLIYSTSNLASGVPSRFSGSGSGTEYTLTISSLQPEDFATYYCHQWSNYPSTFGQGTKLEIKRTVAAPSVFIFPPSDEQLKSGTASVVCLLNNFYPREAKVQWKVDNALQSGNSQESVTEQDSKDSTYSLSSTLTLSKADYEKHKVYACEVTHQGLSSPVTKSFNRGEC
# Key:
# [1] = system: MUC18-positive A375 melanoma mouse xenograft model; test: In vivo inhibitory effect on A375 xenograft tumor and body weight change of mice; parameters: species or system Balb/c mice; conditions: intravenous
# Method: Experimental Example 2: In Vivo Inhibitory Effect of A375 Xenograft Tumor and Effect Thereof on Body Weight Change of Mice
# 6-week-old Balb/c mice were purchased from Jiangsu GemPharmatech Co. Ltd., and each mouse was subcutaneously inoculated with 4 million A375 cells to construct a MUC18-positive A375 melanoma mouse xenograft model. […] After administration, a tumor volume was measured twice a week with a vernier caliper, and the tumor volume was calculated according to the following formula: TV=(length×width) 2/2. Since A375 cell hardly express CD20, Rituximab was used as an isotype control for 02-1 antibody at that time.
# [2] = system: Huh-7 human liver cancer CDX model; test: In vivo inhibitory effect on Huh-7 CDX model and body weight change; parameters: species or system Balb/c nude mice; conditions: 10 mpk intravenous
# Description: Experimental Example 8: In Vivo Inhibitory Effect on Huh-7 Human Liver Cancer CDX Model and Effect Thereof on Body Weight Change of Mice
# 6-week-old Balb/c nude mice were purchased from Shanghai BK/KY Biotechnology Co., Ltd. Each mouse was subcutaneously inoculated with five million Huh-7 cells (purchased from Shanghai BioGene Biotech Co., Ltd,) to obtain CDX model. On the 9th day after inoculation (an average tumor volume was about 230 mm^3), Human IgG-LP1 prepared in Comparative Example 5, and 02-1-LP1 prepared in Example 5 were intravenously injected, respectively. The administration doses were all 10 mpk, once a week for two times (QW×2). After administration, a tumor volume was measured twice a week with a vernier caliper, and the tumor volume was calculated according to the following formula: TV=(length×width)^2/2.
# [3] = system: LD1-0015-200617 human esophagus squamous cell carcinoma PDX model; test: In vivo inhibitory effect on LD1-0015-200617 PDX model and body weight change; parameters: species or system Nu/Nu mice
# Description: Experimental Example 9: In Vivo Inhibitory Effect on LD1-0015-200617 Human Esophagus Squamous Cell Carcinoma PDX Model and Effect Thereof on Body Weight Change of Mice
# LD1-0015-200617 (LideBiotech CO., LTD) is a human esophagus squamous cell carcinoma patient derived xenograft model which expresses human MUC18 (H-Score=75). 6-8 weeks Nu/Nu mice were purchased from Beijing Vital River Laboratory Animal Technology Co., Ltd. Tumors of LD1-0015-200617 were sliced into about 3 mm×3 mm×3 mm fragments and implanted subcutaneously into the flank of mice. On day 39 (mean tumor size ˜171 mm^3) following implanting, Human IgG-LP1 prepared in Comparative Example 5, and 02-1-LP1 prepared in Example 5 were intravenously injected, respectively. The administration doses were all 10 mpk, once a week for three times (QW×3). After administration, a tumor volume was measured twice a week with a vernier caliper, and the tumor volume was calculated according to the following formula: TV=(length×width)^2/2.
# [4] = system: LD1-2025-362797 human small cell lung cancer PDX model; test: In vivo inhibitory effect on LD1-2025-362797 PDX model and body weight change; parameters: species or system Nu/Nu mice
# Description: Experimental Example 11: In Vivo Inhibitory Effect on LD1-2025-362797 Human Small Cell Lung Cancer PDX Model and Effect Thereof on Body Weight Change of Mice
# LD1-2025-362797 (LideBiotech CO., LTD) is a human small cell lung cancer patient derived xenograft model which expresses human MUC18 (H-Score=110). 6-8 weeks Nu/Nu mice were purchased from Beijing Vital River Laboratory Animal Technology Co., Ltd. Tumors of LD1-2025-362797 were sliced into about 3 mm×3 mm×3 mm fragments and implanted subcutaneously into the flank of mice. On day 21 (mean tumor size ˜144 mm^3) following implanting, a first dose of 10 mpk 02-1-LP1 prepared in Example 5 was intravenously injected. And a second dose of 10 mpk 02-1-LP1 was also intravenously injected when the tumor volume regrew to about 700 mm^3 (49th day after the first dose). After administration, a tumor volume was measured twice a week with a vernier caliper, and the tumor volume was calculated according to the following formula: TV=(length×width)^2/2.
# [5] = system: LD1-2009-362263 human triple negative breast cancer PDX model; test: In vivo inhibitory effect on LD1-2009-362263 PDX model and body weight change; parameters: species or system Nu/Nu mice
# Description: Experimental Example 12: In Vivo Inhibitory Effect on LD1-2009-362263 Human Triple Negative Breast Cancer PDX Model and Effect Thereof on Body Weight Change of Mice
# LD1-2009-362263 (LideBiotech CO., LTD) is a human triple negative breast cancer patient derived xenograft model which expresses human MUC18 (H-Score=240). 6-8 weeks Nu/Nu mice were purchased from Beijing Vital River Laboratory Animal Technology Co., Ltd. Tumors of LD1-2009-362263 were sliced into about 3 mm×3 mm×3 mm fragments and implanted subcutaneously into the flank of mice. On day 49 (mean tumor size ˜152 mm^3) following implanting, 02-1-LP1 prepared in Example 5 was intravenously injected. The administration dose was 10 mpk, once a week for two times (QW×2). After administration, a tumor volume was measured twice a week with a vernier caliper, and the tumor volume was calculated according to the following formula: TV=(length×width)^2/2.
# [6] = system: OV-10-0073 human ovarian cancer PDX model; test: In vivo inhibitory effect on OV-10-0073 PDX model and body weight change; parameters: species or system BALB/c nude mice
# Description: Experimental Example 14: In Vivo Inhibitory Effect on OV-10-0073 Human Ovarian Cancer PDX Model and Effect Thereof on Body Weight Change of Mice
# OV-10-0073 (WuXi AppTech (Shanghai) Co., Ltd) is a human ovarian cancer patient derived xenograft model which expresses human MUC18 (H-Score=40). 6-8 weeks BALB/c nude mice were purchased from Beijing Vital River Laboratory Animal Technology Co., Ltd. Tumors of OV-10-0073 were sliced into about 30 mm^3 fragments and implanted subcutaneously into the flank of mice. On day 34 (mean tumor size ˜185 mm^3) following implanting, a single dose of Human IgG-LP1 (2.5, 5 mpk) prepared in Comparative Example 5, and 02-1-LP1 (1.25, 2.5, 5 mpk) prepared in Example 5 were intravenously injected, respectively. After administration, a tumor volume was measured twice a week with a vernier caliper, and the tumor volume was calculated according to the following formula: TV=(length×width)^2/2.
molecule,measurement,setting,value
B1,body weight of the mice,"[1]; A375 xenograft mice, FIG. 18B1",did not significantly affect the body weight of the mice
same,growth inhibitory effect on A375 xenograft (tumor volume),"[1]; 02-1-vc-MMAE 1.5, 3, 6 mpk, 02-1-LP1 2.5, 5 mpk, FIG. 18A1",caused significant elimination of tumor volume
same,tumor growth (tumor volume),"[2]; QW×2, FIG. 25A",can effectively inhibit tumor growth
same,body weight of mice,"[2]; QW×2, FIG. 25B",little effects on the body weight of mice
same,body weight of mice,"[3]; 10 mpk intravenous, QW×3, FIG. 26B",little effects on the body weight of mice
same,tumor growth (tumor volume),"[3]; MUC18 H-Score=75, 10 mpk intravenous, QW×3, FIG. 26A",can effectively inhibit tumor growth
same,body weight of mice,"[4]; 10 mpk intravenous, two doses, FIG. 28B",little effects on the body weight of mice
same,tumor growth (tumor volume),"[4]; MUC18 H-Score=110, first dose 10 mpk intravenous, FIG. 28A",can effectively inhibit tumor growth
same,activity against regrown tumor after the second dose,"[4]; second dose 10 mpk on 49th day after first dose, tumor regrown to about 700 mm^3",still active against the regrown tumor
same,body weight of mice,"[5]; 10 mpk intravenous, QW×2, FIG. 29B",little effects on the body weight of mice
same,tumor growth (tumor volume),"[5]; MUC18 H-Score=240, 10 mpk intravenous, QW×2, FIG. 29A",can effectively inhibit tumor growth
same,tumor growth (tumor volume),"[6]; MUC18 H-Score=40, single dose 1.25, 2.5, 5 mpk intravenous, FIG. 31A",can effectively inhibit tumor growth
same,body weight of mice,"[6]; single dose 1.25, 2.5, 5 mpk intravenous, FIG. 31B",little effects on the body weight of mice
